Data published in article PMC6212790.
The list shows a part of the results. At the low end of the ranking the order means little.

Molecular target: T1, GST-Rok (full length) (UniProt O34857)
T1 sequence: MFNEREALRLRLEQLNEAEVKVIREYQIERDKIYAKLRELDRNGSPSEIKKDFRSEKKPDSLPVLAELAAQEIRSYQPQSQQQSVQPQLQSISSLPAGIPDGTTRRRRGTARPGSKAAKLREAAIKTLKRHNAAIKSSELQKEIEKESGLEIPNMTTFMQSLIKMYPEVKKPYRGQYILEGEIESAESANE
Assay: protein binding microarray;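 further: rank score from −0.5 (least bound) to 0.5 (best bound)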
Conditions: Rok is a gene silencer of Bacillus subtilis; high values mean tight binding; most listed sequences are background and not binding sites; double strand, one strand shown

Sequence | binding signal [E-score]
ATGAGGTG | 0.028
ACACACAT | -0.0651
CACTGGAG | -0.135
CGATTACC | 0.0362
ACTTGGAG | -0.0771
AGGACCGA | -0.189
AACAATAT | 0.144
ACCTACTG | 0.295
GCAAGACA | -0.0947
GACCTAAA | -0.034
CGATGGGC | -0.249
GTGCACGA | -0.045
GTCTTGAA | -0.32
AACCACCC | -0.239
CACGTACG | -0.118
AAAGTAGA | 0.287
ACCTAGGG | -0.142
ACCCTGAG | -0.0255
GACGGCAA | -0.163
GGCTCTAA | 0.0778
AAAATAGT | 0.407
CCCATTAA | -0.225
CTAGTCAA | 0.114
CTGCTAAC | 0.143
AGTCTGGG | 0.00199

Sequence | binding signal [E-score]
CGTAGCAC | 0.00806
ACGGTAGA | 0.365
GATTGTAC | 0.317
CGCAAAAC | 0.0654
ACAGTTCA | 0.165
CATAATAA | 0.252
CGTGGACA | -0.115
GGGACGAC | 0.0145
ACACACTA | 0.311
AATCTAAT | 0.263
AGCCCTAT | -0.0484
AAAACAGT | 0.231
CTCGGTAA | 0.0988
ACAAAGAT | 0.0709
CTCGCTTC | -0.129
AACGTAGC | -0.0241
AACCCAGG | -0.0972
GCGATACA | 0.179
ATACTACA | 0.408
CCCCTGAG | -0.249
TACTGTCA | 0.197
ATAATAGC | 0.288
CGTGAATC | -0.00109
ACAATACT | 0.227
CCATGTTC | 0.00789

Sequence | binding signal [E-score]
ATACAGAT | 0.224
GCTATCAA | 0.164
CTTAAATC | -0.0428
CTACCTTC | 0.0635
AACTGTTG | -0.0237
AGGTGCAT | -0.0671
CTAGATGC | 0.0945
CTTCAACA | -0.0039
GGAATATA | 0.366
CCTTGTTA | -0.224
AATGCAGG | -0.0735
GCCTGAAA | -0.212
CTTTGAAC | -0.0397
CTGTCTCA | -0.0922
ACCCTGCA | -0.0592
ATAAGGAG | -0.0177
GGCATCAA | -0.252
GACGGAGC | -0.285
CATAGCTA | 0.306
GCAACAAC | 0.021
AACGTGTC | 0.0292
CCTAACCG | -0.261
AGATGCCT | -0.171
AAACCCTG | -0.208
AGGTCATG | 0.0996

Sequence | binding signal [E-score]
TCTCAAAA | 0.116
AGTGCCAG | -0.325
ACGAAGAG | 0.0403
GGTCACTA | -0.0958
AGCCTTCG | -0.27
CCGGACTC | -0.22
CGGGCAAG | -0.219
AATGCTCA | -0.131
AGCAGCTC | -0.203
GCCAGACA | -0.349
AAGACGGA | -0.174
TTACGTAA | 0.283
GACGAATC | -0.0614
CACGCGCC | -0.32
GGCTCTCA | -0.378
ACATACGG | 0.197
GTGTGGAA | 0.00658
AACTCAAA | 0.0687
ATGTAACC | -0.000591
CTATCCCC | -0.304
TATTGCAA | 0.253
AAAACAAG | -0.0403
AAAAATGT | 0.132
AGGTGCGG | -0.321
CTTTTAAC | -0.0573

Sequence | binding signal [E-score]
AGTCGTAA | 0.217
ATGGTACA | 0.206
CGAGTGGC | -0.162
TCCTGACA | -0.0875
AGTAAGAT | 0.272
GATAGAGA | 0.0391
TCTTTACA | 0.237
CAGTCGGA | -0.287
GATAAAGC | -0.099
ATCAACGC | 0.109
ACTTCCAT | 0.0223
CCTTTCAA | -0.236
GCCACCGC | -0.105
ATATTCGC | 0.129
ACCACCAA | 0.0478
AGTACGAC | 0.0928
CTCGAATC | 0.0776
CTATGCGA | 0.103
ATAGCAAG | 0.23
CCTCTGTC | -0.148
TATGAGAA | 0.0958
GGGTAAAC | 0.0448
TGCAAGCA | -0.276
ATTGCAAG | 0.0536
TCTTACCA | 0.208

Sequence | binding signal [E-score]
CAGAGACG | -0.203
GTCCATTA | 0.12
ACGCGAGA | -0.0956
AAGGTCAC | -0.084
AAGGGACA | -0.183
AAAATGCA | 0.0508
CAGAAGGG | -0.29
AGGGACTA | -0.206
TGTAATAA | 0.241
AATTACCC | 0.215
CACTGCAG | 0.074
GAAGACGA | -0.276
GCCATACA | 0.19
CCATGCAA | -0.112
ACATAGGG | 0.0564
GTCTAAAA | -0.122
CGAGTCCA | -0.256
ACGATCTG | -0.0392
CCTCGTTC | -0.135
TACACAAA | 0.178
AAAAATTG | 0.0557
TAGGGCAA | -0.0175
AGGCTCGA | -0.0603
GTCCGCCA | -0.33
ATTGTCTG | -0.142

Sequence | binding signal [E-score]
CCGTCAAG | -0.196
GAATCCGC | -0.0597
GCGAGTCA | -0.145
ATTGTTTG | 0.117
GAGAATGC | 0.042
ATCGGGCG | -0.172
GATAGTAC | 0.18
CCCGCAGC | -0.349
AGCTTCAG | -0.286
GGGCACTA | -0.245
CCCAACCA | -0.142
ACCGAGCC | -0.132
AGAACAAG | -0.0116
AGCCCACC | -0.414
ACCATTGG | -0.146
AAGTAGGT | 0.303
CACTGGGC | -0.332
CGCCCATC | -0.255
ATTGTCAA | -0.0429
ATGACAAA | 0.192
AAACTGGC | -0.0579
AAATCTTA | 0.134
